Structures can show the parent of a compound that is named as a salt. This is one part of the list. Most values come without repeats; read them as rough.
Tested on: Beas-2B AQP5-HiBiT reporter cells
Assay: AQP5-HiBiT luminescence relative to vehicle (ratio to vehicle); higher = higher AQP5-HiBiT protein abundance
Details: 10 µM; 18 h
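Note: monoclonal Beas-2B line stably carrying CMV promoter-driven AQP5-HiBiT, 5,000 cells per well in 384-well plates, lytic HiBiT plus LgBiT NanoLuc luminescence, FDA-approved drug library screen.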

Question: Which AQP5-HiBiT luminescence does the source give for `N#CC[C@H](C1CCCC1)n1cc(-c2ncnc3[nH]ccc23)cn1` here?
Answer: 0.286

Question: With `CCCCC1=NC2(CCCC2)C(=O)N1Cc1ccc(-c2ccccc2-c2nnn[nH]2)cc1` [Irbesartan] as the compound, how does the AQP5-HiBiT luminescence read?
Answer: 0.766

Question: How did the AQP5-HiBiT luminescence turn out when `C[C@]12C=CC(=O)N[C@@H]1CC[C@@H]1[C@@H]2CC[C@]2(C)[C@@H](C(=O)Nc3cc(C(F)(F)F)ccc3C(F)(F)F)CC[C@@H]12` [Dutasteride] was run?
Answer: 0.962

Question: With `Cc1cccc(CN2CCN(C(c3ccccc3)c3ccc(Cl)cc3)CC2)c1` (stereo not given) [Meclizine 2hydrochloride] as the compound, how does the AQP5-HiBiT luminescence read?
Answer: 0.826

Question: Which AQP5-HiBiT luminescence does the source give for `C[N+](C)(C)CCOC(N)=O` [Carbachol] here?
Answer: 0.831

Question: How did the AQP5-HiBiT luminescence turn out when `Cc1cc(C)nc(NS(=O)(=O)c2ccc(N)cc2)n1` [Sulfamethazine] was run?
Answer: 0.656

Question: How did the AQP5-HiBiT luminescence turn out when `CC(C)(C(=O)c1cccnc1)c1cccnc1` [Metyrapone] was run?
Answer: 0.804

Question: For `NC(=O)N[C@@H](CCC(=O)O)C(=O)O` [Carbaglu], which AQP5-HiBiT luminescence is on record?
Answer: 0.785

Question: `CCc1c(C)[nH]c2c1C(=O)C(CN1CCOCC1)CC2` (stereo not given) [Molindone hydrochloride] was tested. Which AQP5-HiBiT luminescence did it give?
Answer: 0.71

Question: Which AQP5-HiBiT luminescence does the source give for `CC(C)NCC(O)COc1ccc(CC(N)=O)cc1` (stereo not given) [Atenolol] here?
Answer: 1.02

Question: `NCC[C@H](O)C(=O)N[C@@H]1C[C@H](N)[C@@H](O[C@H]2O[C@H](CN)[C@@H](O)[C@H](O)[C@H]2O)[C@H](O)[C@H]1O[C@H]1O[C@H](CO)[C@@H](O)[C@H](N)[C@H]1O` [Amikacin] was tested. Which AQP5-HiBiT luminescence did it give?
Answer: 1.1

Question: How did the AQP5-HiBiT luminescence turn out when `C=CC(N)CCC(=O)O` (stereo not given) [Vigabatrin] was run?
Answer: 1.05

Question: For `CCC[C@@H]1C[C@@H](C(=O)N[C@@H]([C@H]2O[C@H](SC)[C@H](O)[C@@H](O)[C@H]2O)[C@@H](C)O)N(C)C1` [Lincomycin hydrochloride monohydrate], which AQP5-HiBiT luminescence is on record?
Answer: 0.669

Question: For `c1ccc2c(CC3=NCCN3)cccc2c1` [Naphazoline hydrochloride], which AQP5-HiBiT luminescence is on record?
Answer: 1.27

Question: `N=C(NCCCCCCNC(=N)NC(=N)Nc1ccc(Cl)cc1)NC(=N)Nc1ccc(Cl)cc1` [Chlorhexidine hydrochloride] was tested. Which AQP5-HiBiT luminescence did it give?
Answer: 0.736

Question: How did the AQP5-HiBiT luminescence turn out when `CC(=O)O[C@]1(C(C)=O)CC[C@H]2[C@@H]3C=C(C)C4=CC(=O)CC[C@]4(C)[C@H]3CC[C@@]21C` [Megestrol acetate] was run?
Answer: 0.719

Question: Which AQP5-HiBiT luminescence does the source give for `CC(C)NCC(O)c1ccc(NS(C)(=O)=O)cc1` (stereo not given) [Sotalol hydrochloride] here?
Answer: 1.66

Question: How did the AQP5-HiBiT luminescence turn out when `C=C1CC[C@H](O)C/C1=C/C=C1\CCC[C@]2(C)[C@@H]([C@H](C)/C=C/[C@H](C)C(C)C)CC[C@@H]12` [Vitamin D2] was run?
Answer: 1.28

Question: `CN(C)C(=N)NC(=N)N` [Metformin hydrochloride] was tested. Which AQP5-HiBiT luminescence did it give?
Answer: 0.748

Question: Which AQP5-HiBiT luminescence does the source give for `CC(=O)OCC(=O)[C@@]12OC3(CCCC3)O[C@@H]1C[C@H]1[C@@H]3CCC4=CC(=O)C=C[C@]4(C)[C@@]3(F)[C@@H](O)C[C@@]12C` [Amcinonide] here?
Answer: 0.874

Question: For `CNC[C@H](O)c1ccc(O)c(O)c1` [Epinephrine bitartrate], which AQP5-HiBiT luminescence is on record?
Answer: 0.782

Question: How did the AQP5-HiBiT luminescence turn out when `CCN(CC)CCNC(=O)c1cc(Cl)c(N)cc1OC` [Metoclopramide hydrochloride] was run?
Answer: 0.934

Question: With `O=C(c1cc(Cc2n[nH]c(=O)c3ccccc23)ccc1F)N1CCN(C(=O)C2CC2)CC1` as the compound, how does the AQP5-HiBiT luminescence read?
Answer: 1.15

Question: Which AQP5-HiBiT luminescence does the source give for `CC(=O)N1CCN(c2ccc(OCC3COC(Cn4ccnc4)(c4ccc(Cl)cc4Cl)O3)cc2)CC1` (stereo not given) [Ketoconazole] here?
Answer: 1.03

Question: Which AQP5-HiBiT luminescence does the source give for `CCCC(=O)Nc1ccc(OCC(O)CNC(C)C)c(C(C)=O)c1` (stereo not given) [Acebutolol hydrochloride] here?
Answer: 0.678

Question: `Cc1ccc(S(=O)(=O)NC(=O)NN2CCCCCC2)cc1` [Tolazamide] was tested. Which AQP5-HiBiT luminescence did it give?
Answer: 0.465

Question: With `COc1ccc(CC(C)NCC(O)c2ccc(O)c(NC=O)c2)cc1` (stereo not given) [Formoterol Hemifumarate] as the compound, how does the AQP5-HiBiT luminescence read?
Answer: 0.936

Question: With `C=CC1=C(C(=O)O)N2C(=O)[C@@H](NC(=O)/C(=N\O)c3csc(N)n3)[C@H]2SC1` [Cefdinir] as the compound, how does the AQP5-HiBiT luminescence read?
Answer: 0.814

Question: How did the AQP5-HiBiT luminescence turn out when `CC1(C)O[C@@H]2C[C@H]3[C@@H]4C[C@H](F)C5=CC(=O)C=C[C@]5(C)[C@H]4[C@@H](O)C[C@]3(C)[C@]2(C(=O)CO)O1` [Flunisolide] was run?
Answer: 0.769

Question: With `COc1c(C)c2c(c(O)c1C/C=C(\C)CCC(=O)O)C(=O)OC2` [Mycophenolic acid] as the compound, how does the AQP5-HiBiT luminescence read?
Answer: 0.574

Question: `Nc1nc(O)c2ncn(CCC(CO)CO)c2n1` [Penciclovir] was tested. Which AQP5-HiBiT luminescence did it give?
Answer: 1.01

Question: With `CC(N)(Cc1ccc(O)c(O)c1)C(=O)O` (stereo not given) as the compound, how does the AQP5-HiBiT luminescence read?
Answer: 1.03

Question: Which AQP5-HiBiT luminescence does the source give for `CC(CN(C)C)CN1c2ccccc2CCc2ccccc21` (stereo not given) [Trimipramine maleate] here?
Answer: 1.21

Question: Which AQP5-HiBiT luminescence does the source give for `COc1cccc(OC)c1C(=O)N[C@@H]1C(=O)N2[C@@H]1SC(C)(C)[C@@H]2C(=O)O` [Methicillin sodium] here?
Answer: 1.04

Question: `CN(C)CCOC(C)(c1ccccc1)c1ccccn1` (stereo not given) [Doxylamine succinate] was tested. Which AQP5-HiBiT luminescence did it give?
Answer: 0.722

Question: For `O=C1c2cccc3c2[C@H](CCC3)CN1[C@@H]1CN2CCC1CC2` [Palonosetron hydrochloride], which AQP5-HiBiT luminescence is on record?
Answer: 1.11

Question: With `CCOC(=O)C1=C(C)NC(C)=C(C(=O)OC)C1c1cccc(Cl)c1Cl` (stereo not given) [Felodipine] as the compound, how does the AQP5-HiBiT luminescence read?
Answer: 0.458

Question: Which AQP5-HiBiT luminescence does the source give for `CC(=O)OC(C)C[N+](C)(C)C` (stereo not given) [Methacholine Chloride] here?
Answer: 1.13

Question: How did the AQP5-HiBiT luminescence turn out when `CN1C(C(=O)Nc2ccccn2)=C(O)c2ccccc2S1(=O)=O` [Piroxicam] was run?
Answer: 0.684

Question: `CCC[C@@H]1C[C@@H](C(=O)N[C@@H]([C@H]2O[C@H](SC)[C@H](O)[C@@H](O)[C@H]2O)[C@@H](C)O)N(C)C1` [Lincomycin hydrochloride] was tested. Which AQP5-HiBiT luminescence did it give?
Answer: 0.98

Source: the supplement of paper PMC8821664
